Measurements from PMC7229206, “Split Intein-Mediated Protein Ligation for detecting protein-protein interactions and their inhibition” (Nature Communications, 2020).

Target: T1, NIN-RAF1 (UniProt P04049)
T1 construct: RAF1; also called NIN-RAF1 construct; source: HEK 293, transiently transfected, in live cells; not shown: V5, N-terminal, kept; GP41-1 intein N-terminal fragment IN (split at C25), N-terminal, kept
Test: split reporter (BiFC, NanoBiT); SIMPL (split intein-mediated protein ligation, GP41-1 split at C25): bait and prey co-expressed in transiently transfected HEK 293 cells; spliced product seen by western blot of lysates with α-V5 and α-FLAG; rapamycin (100 nM or a dose range, 2 min to 2 h) for FRB/FKBP1A; EGF 5 min for EGFR/SHC1 in one panel
Settings: partners not purified

fold of the splicing signal (density) against RAF1-IN: > 6 fold
B1: IC-KRAS (wild type) (natural protein)
chain: not shown
notes: KRAS, wild type; The IC format was chosen to leave the C-terminal lipidation undisturbed; also called wild-type KRAS; KRAS WT; source: HEK 293, transiently transfected, in live cells; not shown: GP41-1 intein C-terminal fragment IC (split at C25), N-terminal, kept; FLAG, N-terminal, kept
